Laboratory results as given in patent US12551573B2, “Compositions and methods for the targeting of PCSK9” (Scribe Therapeutics Inc., priority 2022, dated 2026).

Tested on: HBEGF locus
Type: cell-based, human
Conditions: high-throughput screen of dXR repression of the HBEGF gene
[1] = abundance of each domain in the library before vs after diphtheria toxin selection, listed domains met p-value <0.01 and log2(fold change) >2

Molecule	Log2 (fold change) [1]	Log2 (fold change) (change in abundance of each domain in the library before and after diphtheria toxin selection)
DOMAIN_23109 (protein, listed as Mustela putorius) LQGLLTFRDVAIEFSEEEWGCLTHTQRQLYRDVMLENYGHLHFLGLLLSKPDLIMFLEQEKQLWDVKRKESRGFSPESQCL	2.9639	
DOMAIN_23136 (protein, Vicugna pacos) SQGLVTFGDVAVDFSQEEWEWLDCAQRTLYRSVMLENYRSLVSLGLCVSKPEMISSLEQRKEPWTVKRKWTRGQCPDSEAV	3.285	
DOMAIN_23181 (protein, listed as Colobus angolensis) SLTLEDVAVDFTWEEWQLLGPAQKDLYRDVMLENYSNLVAVGYQASKPDALSKLEQGEEPCTTEDEIYTRICCGGQPQTCS	2.7665	
DOMAIN_23196 (protein, listed as Odobenus rosmarus) SKVPVTFGDLAIYFSQEEWEWLSPIQKDLYEDVMLENYQNLVSLGLSFRRPNVITLLEKGKAPWIVEPVRKRRGVDSGSKS	4.3363	
DOMAIN_23200 (protein, listed as Ursus americanus) QAEVTFEDVAVLFSREEWGRLGPAQRGLYRDVMLETYRNLVSLGAGPAAPKPGVITQLERGDEPWVLDAQGAKGKERLRVS	3.755	
DOMAIN_23215 (protein, listed as Vombatus ursinus) TQESVMFEDVAVDFTREEWSHLDPAQRALYREVMLENYENLVSLGLPVSKLDVISLLERGEAPWRPEGGGPRCSCPDPFIE	3.0212	
DOMAIN_23217 (protein, listed as Vombatus ursinus) FQESVTFQDVAVDFTWEEWGHLGPAQKELYREVMLENYRNLVCLGLEVSKPDVVCQLERGEAPWMPEGAVPRSCSQNWGAR	4.1674	
DOMAIN_23239 (protein, Vicugna pacos) RPESVTFEDVAIYFSENEWTGLAPAQRALYRDVMLENYGALASLAFPFPKPALIFQLEQGEAPWSSAPQGALDGEGPRGIS	3.0945	
DOMAIN_23250 (protein, Delphinapterus leucas) MDSVTIEDVAVDFTLEEWALLGPSQRKLYRDVMQETLRNLAAVGAKREYHDIEDQYKNQGRKLRTFMVERLCKSKDISLCG	2.71	
DOMAIN_23260 (protein, listed as Tupaia chinensis) QPGAVRFADVAVYFSPEEWGCLRPVQRALYRDVMRETYSHLVALGVGGTKPKLISWVEEEAELWGPEAQDLEGAKCLTEAN	2.7567	
DOMAIN_23301 (protein, Gulo gulo) SQDLVTFKDVAIDFSQEEWEWLNPAQRNLYKNMMLENYQNLVSLGLCISKPYVISLLEQGKGPWEMKTEMTRSPFPDSGSV	2.6839	
DOMAIN_23323 (protein, listed as Erinaceus europaeus) SLGMVSFEDVAVTFSREEWQQLDEAQRTLYREVMLEAYSNLKTVGCCWSKPEVIIRLEQGVEPWTVEGVTNQRFSDVLTVD	3.2619	
DOMAIN_23336 (protein, listed as Carlito syrichta) FQELVTFRDVAIDFSRQEWEYLDPNQRDLYRDVMLENYSNLVSLGHSISKPDVVDLLEQGKEPWMLLGEETQYSGSNPEPV	2.239	
DOMAIN_668 (protein, listed as Pan paniscus) DPAQVPVAADLLTDHEEQGYVTFEDVAVYFSQEEWRLLDDAQRLLYRNVMLENFTLLASLGLASSKTHEITQLESWEEPFM		2.9256
DOMAIN_23375 (protein, Vicugna pacos) YQRPVSFKDVVVGFTQEEWHRLNPAQRALYRDVMLETYSNLVSVGYEGTKPYVILRLEQEEAPWICEAACPGCHCRENIWQ	3.266	
DOMAIN_23378 (protein, listed as Odobenus rosmarus) PQEPVTFEDVAVYFTQNQWASLDPTQRALYREVMLENYASVASLVAFPFPKPDLVSQLERGEAPWSPDPWEAEVLKGTCPG	3.0623	
DOMAIN_23453 (protein, listed as Carlito syrichta) MAFMDVAVDFTQEEWRLLSPAQRTLYREVMLENYSNLVSLGIPFSKPKLITLLEQEKVTWREKRKCPLATCPAEPEPEPEL	2.2331	
DOMAIN_23458 (protein, Vicugna pacos) MFQVTFSDVAIDFSHEEWGWLDSAQRDLYKDVMVQNYENLVSLGLSIPKPNVIALLEEGKDPWMVERKLSTGMFPDWDSRW	2.4232	
DOMAIN_23480 (protein, listed as Odobenus rosmarus) SQSLVTFGDVAVDFSQEEWEWLNSAQRNLYRSVMLENYRNLVSLGLCVSKPDVISSLEQRKEPWMVKRKLTRGRCPDLKTV	3.4432	
DOMAIN_23494 (protein, listed as Mustela putorius) QAEVTFEDVAVLFSREEWGRLGPAQRGLYRDVMLETYRNLVSLGAGPAGPKPGVITQLERGDEPWVLDAQGAEGKERLRVS	3.847	
DOMAIN_23508 (protein, listed as Mustela putorius) IQEPVTFKDVAVDFTQEEWGQLDSVQRTLYRDVMLETYGHLLSVGNHIAKPEVISLLEQGEEPWSVEQAYPQSTCPEWMRN	2.3582	
DOMAIN_23513 (protein, listed as Tupaia chinensis) EQVTFKDVAIEFSKTEWKRLDPAQRALYREVMLENYRNLVSVGTSPPDVTVISMLEQGEEPWTAESRVQRPEVPGGREWTQ	3.2927	
DOMAIN_23561 (protein, listed as Colobus angolensis) YQTPVSFKDVVVGFTQEEWHWLSPAQRALYRDVMLETYSNLVSVGYEGTKPDVILRLEQEEAPWIGEAACPGCHCWGISKL	3.2392	
DOMAIN_23574 (protein, Gulo gulo) QGSVTFRDVAIDFSQEEWEWLQPAQRDLYRHVMLENYGHLVSLGLNISKPYVVSLLEQGRDPWLEKDVRRDLFSESSGEIR	2.939	
DOMAIN_23575 (protein, listed as Erinaceus europaeus) KPAAVRFADVAVYFSPEEWGCLRPAQRTLYRDVMRETYGHLGALGFPGPKPALISWMEQESEVWSPAAQDPEEGESLGGAR	3.4624	
DOMAIN_23576 (protein, listed as Erinaceus europaeus) SKAPVTFGDLAVYFTQAEWEWLSPVQKALYQDVMLENYQVLVSLGLCLRRPNLISLLEKGKAPWVAEPVRRRRGPDSASKF	3.8014	
DOMAIN_23590 (protein, listed as Odobenus rosmarus) ARGLVTFEDVAVYFSREEWGLLNLTQRSLYRDVMLENFALIGSLGFAPSRSHVVAQLESEEELWVPSMVDLTLGSRAEARR	2.8653	

Read-outs that look alike come from different tables or passages of the source.
